In PubChem BioAssay (NCI):
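The compound was tested at five concentrations on cells cultured in 96-well plates, with a 48-hour exposure period. GI50: concentration for 50% inhibition of growth. TGI: concentration producing complete growth inhibition.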

tested on: NCI-H322M lung; assay: inhibition of tumour cell growth, NCI panel, 48 h

| Structure (SMILES) | GI50 | TGI |
| --- | --- | --- |
| CCN(CC)c1ccc(N=C2C=C(C(=O)Nc3ccc(S(C)(=O)=O)cc3)C(=O)c3ccccc32)c(C)c1 | > 100 µM | > 100 µM |
| CC(C)(C)n1c(=O)n(C(=O)C(Cl)(Cl)Cl)n(C(=O)C(Cl)(Cl)Cl)c1=O | – | > 100 µM |
| O=C(NNc1cn[nH]c(=O)c1Cl)/C(=C/c1ccc2c(c1)OCO2)NC(=O)c1ccccc1 | – | > 100 µM |
| CC1CCc2c(sc3ncnc(N/N=C/c4ccc(Cl)c(Cl)c4)c23)C1 (configuration not stated) | – | > 100 µM |
| Cn1ccnc1C(c1nccn1C)C(C)(C)[N+](=O)[O-] | – | > 100 µM |
| CN(C)CCOC(=O)c1ccc(N)cc1 | – | > 100 µM |
| COc1c(OC)c(O)c2c(=O)c(OC)c(-c3ccc4c(c3)OCO4)oc2c1O | – | > 100 µM |
| CC(C)[C@H]1NC(=O)[C@H]2N=C(O[C@@H]2C)[C@@H]2CCCN2C(=O)[C@H](Cc2ccccc2)NC(=O)[C@@H]2CSC(=N2)[C@@H](Cc2ccccc2)NC(=O)[C@@H]2CSC1=N2 | – | > 100 µM |
| Cc1cn(CC2=NCCCN2)c(=O)[nH]c1=O | – | > 100 µM |
| Cc1nc2cncc(C#Cc3cncc(C(=O)Nc4ccc(CN5CCN(C)CC5)c(C(F)(F)F)c4)c3)c2nc1C | 0.324 µM | 6.32 µM |
| CCOC(=O)c1c2c(n(-c3ccc(OC)cc3)c1C)C(=O)C(=O)c1ccccc1-2 | – | 3.29 µM |
| O=c1[nH]c2cc3cccnc3c(Cl)c2nc1C(F)(F)F | – | > 100 µM |
| O=C1c2ccccc2C(=O)c2c1ccc1c2N=C(c2ccc(F)cc2)CC(c2ccc(Cl)c(Cl)c2)N1 (configuration not stated) | – | 66 µM |
| CCOP(=O)(OCC)/C(=C\N1C(=O)CC(=O)NC1=S)C(=O)OC | – | > 100 µM |
| CCc1ccc(-c2ccc(=O)n(-c3ccc(S(N)(=O)=O)cc3)n2)cc1 | > 37.8 µM | 99.4 µM |
| CC(=O)OCc1cc(=O)n(C)c2c3c4c(cc12)c(C)cc(=O)n4CO3 | – | 13.4 µM |
| COc1cc([C@@H]2c3cc4c(cc3C(Br)[C@H]3COC(=O)[C@H]23)OCO4)cc(OC)c1OC (some centres not stated) | 0.552 µM | > 100 µM |
| Cc1ccc(S(=O)(=O)NC(=O)NCCC(=O)O)cc1 | – | > 100 µM |
| CC1=C(C)CC2(SC1)C(=O)c1ccccc1C2=O | – | > 100 µM |
| c1cc(C[S+]2CCCC2)ccc1C[S+]1CCCC1 | – | > 100 µM |
| Nc1nc2c(c3ncccc13)C(c1ccc(Cl)c(Cl)c1)Cc1ncccc1-2 (configuration not stated) | 7.98 µM | 21.4 µM |
| COC(=O)c1ccc(CCc2cc(O)ccc2O)cc1 | – | > 100 µM |
| N#Cc1c(N2CCCC2)ncn(Cc2ccccc2)c1=S | – | > 100 µM |
| COC(=O)Nc1nc2ccc(Oc3ccc(NC(=O)Nc4cccc(Br)c4)cc3)cc2[nH]1 | 5.23 µM | > 25 µM |
| COc1ccc(/C=C(\C(=C/c2ccc(OC)cc2)[N+](=O)[O-])[N+](=O)[O-])cc1 | – | 31.8 µM |

| Structure (SMILES) | GI50 | TGI |
| --- | --- | --- |
| COc1ccc(C[C@H](N)C(=O)N2C[C@H](CO)C[C@H](n3cnc4c(N(C)C)ncnc43)C2)cc1 | – | > 100 µM |
| COc1ccc(-c2nsc3c2NC(=O)CC3c2ccc3c(c2)OCO3)cc1 (configuration not stated) | 15.8 µM | > 100 µM |
| CC(=O)O[C@H]1CC[C@@]2(C)C(CC[C@]3(C)C2CC[C@]2(C)Oc4c(C)cc(O)cc4C[C@@H]23)C1(C)C (some centres not stated) | – | 22.5 µM |
| COc1ccccc1NC(=S)N/N=C(/C)c1ccccn1 | – | > 87.8 µM |
| O=C1OC2(C(F)(F)F)Oc3ccccc3CN2C12CCCCC2 (configuration not stated) | – | > 100 µM |
| C=CC(C)(C)N[C@@H](C(=O)N1CCC[C@H]1c1nc(-c2nc(C(=O)OCC=C(C)C)c(C)o2)c(C)o1)C(C)C | – | 70 µM |
| COc1ccc(C2=CC(c3cc(OC)c(OC)c(OC)c3)NC(=O)N2)cc1OC (configuration not stated) | 4.19 µM | 16 µM |
| C=CCN(c1cc(OCc2ccccc2)c(NC(C)=O)cc1[N+](=O)[O-])S(C)(=O)=O | – | > 100 µM |
| Oc1ccc2c(c1)CC[N+]1=C2CCC2CCCC21 (configuration not stated) | – | > 100 µM |
| NC(c1ccccc1)(C(F)(F)F)P1(=O)OC(=O)c2ccccc2O1 (configuration not stated) | – | > 100 µM |
| Nc1ccc(-c2nc3cc(F)ccc3s2)cc1I | – | > 60.9 µM |
| NC1C2C(CC(=O)O)OCC=C3CN4CCC1(C(=O)C(=O)O)C4CC32 (configuration not stated) | – | > 100 µM |
| O=c1[nH]c(=O)n(C2CC(O)C(CO)O2)cc1C(OCC(F)(F)F)OCC(F)(F)F (configuration not stated) | – | > 100 µM |
| Nc1c(C(=O)c2cccc(-c3ccc[n+]([O-])c3)c2)cnn1-c1ccc(F)cc1F | > 25 µM | > 25 µM |
| Nc1ccc(N=Nc2ccccc2)c(N)n1 | 37.7 µM | > 100 µM |
| OCC(O)C1OC2CC1Nc1ccccc1N2 (configuration not stated) | – | > 100 µM |
| C=CCC12CCC(=O)C=C1CCC1(C2)OCCO1 (configuration not stated) | – | > 100 µM |
| COc1ccccc1/C=C1\CCC(CNc2ccc(Cl)cc2)C1=O (configuration not stated) | – | 27.6 µM |
| CC1=C(SCc2ccccc2)C(=O)c2ccccc2C1=O | – | > 100 µM |
| CCCn1c(=O)c2ccccc2[n+]2c(-c3ccc([N+](=O)[O-])cc3)csc12 | – | > 100 µM |
| COC(=O)c1nc(-c2ccc3c(n2)C(=O)C(N)=C(OC)C3=O)c(N)c(-c2ccc(OC)c(OC)c2O)c1C | – | 2.5 µM |
| O=C1c2ccccc2-c2c1c1ccc([N+](=O)[O-])cc1c(=O)n2CCNCCCNCCn1c2c(c3ccc([N+](=O)[O-])cc3c1=O)C(=O)c1ccccc1-2 | 0.172 µM | 22.4 µM |
| Cc1ccc(NC(=S)Nc2c(C)n(C)n(-c3ccccc3)c2=O)cc1 | – | > 100 µM |
| O=C(O)CNS(=O)(=O)c1ccc(NC(=O)c2ccc(F)cc2)cc1 | – | > 100 µM |
| CC(=N\O)/C(C)=N/O.CC(=N\O)/C(C)=N/O.CC(=N\O)/C(C)=N/O.CC(=N\O)/C(C)=N/O.[Cu].[Cu] | 16.1 µM | 32 µM |
